Variants at the background level are over-represented here.
B1: TPR 5TU (parent)
chain: GGAUCUUCUCGAUCUAACAAAAAAGACAAAUCUGCCACAAAGCUUGAGAGCAUCUUCGGAUGCAGAGGCGGCAGCCUUCGGUGGCGCGAUAGCGCCAACGUUCUCAACUAUGACACGCAAAACGCGUGCUCCGUUGAAUGGAGUUUAUCAUG

Variants of: B1
Experiment: polymerase ribozyme fitness, log enrichment relative to wild type (log ratio); higher = more active; in vitro selection for triplet polymerase activity
Summary of the method: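 One round of in vitro selection, in triplicate, was applied to PCR-built, transcribed mutant libraries of each subunit of a heterodimeric triplet polymerase ribozyme. The steps were annealing with a biotinylated primer, partner subunit and triplets, incubation frozen at −7 °C, gel excision of extended constructs, streptavidin-bead capture and RT-PCR. Fitness is the logarithm, base 2, of genotype enrichment over wild-type enrichment from inverse-variance-weighted replicate averages of Illumina-sequenced inputs and outputs, keeping genotypes with ≥10 input reads and ≥1 read per output.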

Polymerase ribozyme fitness (log ratio), ≤ -4.2:
GGAUCUUCUCGAUCUAACAAAAAAGUCAAUUCUGCCACAAAGCUUGAGAGCAUCUUCGGAUGCAGAGGCGGCAGCCUUCGGUGGCAUGAUAGUGCCAACUUUCUCAACCAUGACACGCAAAACGCGUGCUCCGUUGAAUGGAGUUUAUUAUG
GGAUCUUCUCGAUCUAACAAAAAAGUCAAAUCUGCCACAAAGCUUGCGGGCAUCUUCGGAUGCAGAGCCGGCAGCCUUCGGUGGCGCGAUAGCCCCAACGUUCUCAACUAUGACACGCAAAACACGUGCUCCGUUGAAUGGAGUUUAUCAUG
GGAUCUUCUCGAUCUAACAAAAAAGUCAAUUCUGCCACAAAGCUUGAGAGCAUCUUCGGAUGCAGAGGCGGCAGCCUUCGGUGGCGCGAUAGGGCCAACGUUCUCAACUAUGACAAGCAAAACGCGUGCUCCGAUGAAUGGAGUUUAUCAUG
GGAUCUUCUCGAUCUAACAAAAAAGUCAAAUCUGCCACACAGCUUGAGAGCAUCUUCGGAUGCAGAGGCGGCAGCCUUCGGUGGCGCGAUAGCGCCAACGUUCUCAACUAUGACACGCAAAACGCGUGCUCCGGUGAAUGGAGUUUAUCAUG
GGAUCUUCUCGAUCUAACAAAAAAGUCAAAUCUGCCACUAAGCUUGAGAGCAUCUUCGGAUGCAGAGGCGCCAGCCUUCGGUGGCGCGAUAGCGGCAACGUUCUCAACUAUGACACGCAAAACGCGUGCUCCGUUGAAUGGAACUUAUCAUG
GGAUCUUCUCGAUCUAACAAAAAAGUCAAAUCUGCCACAGAGCUUGAGAGCAUCUUCGGAUGCAGAGGCGGCAGCCUUCGGUGGCGGGAUAGCCCCAACGUUCUCAACUAUGACACGCAAAACGCGUGCUCCGUUGAAUGGAGUUUAUCAUG
GGAUCUUCUCGAUCUAACAAAAAAGUCAAAUCUGCCACAACGCUUGAGAGCAACUUCGGAUGCAGAGGCGGCAGCCUUCGGUGGCGCGAUAGCGCAAACGGUCUCAACCAUGACACGCAAAACGCGUGCUCCGUUGAAUGGAGUUUAUCAUG
GGAUCUUCUCGAUCUAACAAAAAAGUCAAAUCUGCCACAAGGCUUGAGAGCAUCUUCGGCUGCAGAGGCGGCAGCCUUCGGUGGCGCGAUAGCCCCAACGUUCUCAACUAUGACAUGCAAAACACGUGCUCCGUUGAAUGGAGUUUAUCAUG
GGAUCUUCUCGAUCUAACAAAAAAGUCAAUUCUGCCACAAAGCUUGAAAGCAUCUUCGGAUGCAGAGGCGGCAGCCUUCGGUGGCGCGAUAGCGCCAACGUUCUCAACUAUGACACGCAAAACGCGUGCUCCGUUGAAUGGAGUUUAUCAUG
GGAUCUUCUCGAUCUAACAAAAAAGUCAAAUCUGCCACGAAGCUUGAGACCAUCUUGGGAUGCAGAGGCGGCAGCCUUCGGUGGUGCGGUAGCGCCAACGUUCUCAACUAUGACACGCAAAACGCGUGCUCCGUUGAAUGGAGUUUAUCAUG
GGAUCUUCUCGAUCUAACAAAAAAGUCAAAUCUGCCACUAAGCUUGAGAGCAUCUUCGGAUGCAGAGGCGGCAGCCUUCGGUGGCGCGCUAUCGCCAACGUUCUCAACGUUGACACGCAAAACGCGUGCUCCGUUGAAUGGAGUUUAUAAUG
GGAUCUUCUCGAUCUAACAAAAAAGUCAAAUCUGCCACAAUGCUUGAGAGCAUCUUCGGAUGCAGAGGCCGCAGCCUUCGGUGGCGCGAUAGCGCCAACGUUCUCAACUAUGACAAGCAAAACGCGUGCUCCGUUGAAAGGAGUUUAUCAUG
GGAUCUUCUCGAUCUAACAAAAAAGUCAAAUCUGCCACCAAGCUUGAGAGCAUCUUCGGAUGCAGAGGCGGCAGCCUUCGGUGGUUCGAUAGCGCCAACGUUCUCAACUAUGACACGCAAAACGCGUGCUCCGUUGAAUGCAGUUUAUCAUG
GGAUCUUCUCGAUCUAACAAAAAAGUCAAAUCUGCCACAAAGCUUGCGAGCUUCUUCGGAUGCAGCAGCGGCAGCCUUCGGUGGAGCGAUAGCGCCAACGUUCUCAACUAUGACACGCAAAACGCGUGCUCCGUUGAAUGGAGUUUAUCAUG
GGAUCUUCUCGAUCUAACAAAAAAGUCAAAUCUGCCACAGCGCUUGAGGGUCUCUUCGGAUGCAGAGGCGGCAGCCUUCGGUGGCGCGAAAACGUCCACGUUCUCAACUAUGACACGAAAAACGCGUGCUCCGUUGGAUGGAGUUUAUCACG
GGAUCUUCUCGAUCUAACAAAAAAGUCAAAUCUGCCACAAGGCUUGAGAGCAACAUCGGAUGCAGAGGCGGCAGCCUUCGGUGGCGCGAUUGCGCCAACGUUCUCAACUAUGACACGCAAAACGCGUGCUCCGUUGAAUGGAGUUUAGCAUG
GGAUCUUCUCGAUCUAACAAAAAAGUCAAAUCUGCCACAACGCUUGAGAGCAUCUUCGGAUGCAGAGGCGGUAGCCUUCGGUGGCGCGAUAGCGCUAACGUUCUCAAAUAUGACACGCAAAAUGCGUGCUCCGUUGAAUGGAGUUUAUCAUG
GGAUCUUCUCGAUCUAACAAAAAAGUCAAAUCUGCCACGAAGCUUGAGCGCAUCUUCGGAUGCAGAGGCGGCAGCCGUCGGUGGCGCGUUAGCGCCAACGUUCUCAACUAUGACACGCAAAACGCGUGCUCCGUUGAAUGGAGUUUCUCAUG
GGAUCUUCUCGAUCUAACAAAAAAGUCAAAUCUGCCACAACGCUUGAGAGCAUCUUCGGAUGCAGAGGCGGCAGCCUUCGGUGGCUCGAUAGCGCCAACGUUCUCAACUAUGACACGCAAAACGCGUGCUCCGUUGAAUGGAGUUUAUCAUG

Source: the RNAGym collection of RNA variant scans (doi:10.1073/pnas.2313332121)
